Measured values taken from PMC4336329 (PLoS ONE, 2015).
About 14,000 (4.5%) of roughly 310,000 compounds showed an effect of 50% or more. The effect is printed as a negative number. The list shows a part of the results.

molecular target: human ether-à-go-go-related gene (hERG) potassium channel (human, UniProt Q12809); assay: primary screen, population patch clamp on CHO cells stably expressing hERG
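Note: peak tail current of the secondary pulse compared with the same well before compound.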

Sequence of human ether-à-go-go-related gene (hERG) potassium channel (Q12809 whole entry, looked up): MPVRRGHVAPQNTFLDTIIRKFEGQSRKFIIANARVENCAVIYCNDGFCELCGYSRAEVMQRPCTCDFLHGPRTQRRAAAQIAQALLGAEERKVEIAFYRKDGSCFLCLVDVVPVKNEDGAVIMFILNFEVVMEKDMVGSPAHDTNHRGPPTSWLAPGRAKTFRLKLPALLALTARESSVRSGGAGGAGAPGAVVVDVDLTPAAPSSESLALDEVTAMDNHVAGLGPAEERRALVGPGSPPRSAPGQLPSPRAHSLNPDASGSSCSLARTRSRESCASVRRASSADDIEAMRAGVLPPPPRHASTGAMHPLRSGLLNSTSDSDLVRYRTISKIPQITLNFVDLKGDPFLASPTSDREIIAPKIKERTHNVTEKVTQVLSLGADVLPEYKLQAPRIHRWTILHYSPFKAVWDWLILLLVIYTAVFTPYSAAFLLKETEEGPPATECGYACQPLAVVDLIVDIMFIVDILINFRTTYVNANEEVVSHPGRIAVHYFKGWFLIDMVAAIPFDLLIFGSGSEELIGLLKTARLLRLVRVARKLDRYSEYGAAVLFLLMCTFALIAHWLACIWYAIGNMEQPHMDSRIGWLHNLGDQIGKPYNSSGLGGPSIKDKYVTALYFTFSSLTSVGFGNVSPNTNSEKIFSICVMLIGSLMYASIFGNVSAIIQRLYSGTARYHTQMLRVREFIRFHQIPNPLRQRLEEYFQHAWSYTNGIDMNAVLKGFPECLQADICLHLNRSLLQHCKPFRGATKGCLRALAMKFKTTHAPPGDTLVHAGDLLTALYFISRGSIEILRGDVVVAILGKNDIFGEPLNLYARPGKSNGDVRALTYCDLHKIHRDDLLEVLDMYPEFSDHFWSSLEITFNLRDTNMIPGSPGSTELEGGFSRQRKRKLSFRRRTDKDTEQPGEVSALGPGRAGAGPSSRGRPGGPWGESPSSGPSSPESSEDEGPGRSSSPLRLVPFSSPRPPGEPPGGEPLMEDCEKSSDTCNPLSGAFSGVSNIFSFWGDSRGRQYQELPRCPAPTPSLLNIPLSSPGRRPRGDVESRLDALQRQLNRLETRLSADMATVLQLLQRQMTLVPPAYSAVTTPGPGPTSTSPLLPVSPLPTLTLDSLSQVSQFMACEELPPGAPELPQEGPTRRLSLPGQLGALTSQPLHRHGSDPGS

SMILES	hERG current change (%, negative = inhibition) at 10uM [%]
Fc1ccc(-n2c(Cc3ccccc3)nnc2SCc2nc(-c3ccc(Cl)cc3)no2)cc1	-1.6
COc1ccc(CNc2ccc(C)c(C)c2)c(OC)c1OC.O=C(O)C(=O)O	2.1
Cc1cc(C)cc(N(C(C)C(=O)NCCC2=CCCCC2)S(C)(=O)=O)c1 (stereo not drawn)	-17.5
Cc1onc(-c2ccccc2Cl)c1C(=O)N1CCC(C)CC1	4
CC(=O)N1CCC2(CC1)CC(=O)c1cc(OCC(=O)NCc3ccco3)ccc1O2	-19.3
COc1ccc(OC)c(NC(=O)c2ccc(-c3cccs3)cc2)c1	-6.69
CC(=O)OC(C(=O)NC1CCCCC1)c1ccccc1Cl (stereo not drawn)	-2.88
CCSc1nc2n(n1)C(c1cccc(F)c1)C1=C(CCCC1=O)N2 (stereo not drawn)	-7.28
N#Cc1c(-c2ccc(F)cc2)cc(C2CC2)nc1SCC(=O)c1cccs1	17.6
CC(C)Oc1ccc2c(=O)c(-c3ccccc3)coc2c1	20.3
C[C@@H]1C(=O)OC[C@H]1NC(=O)OCc1ccccc1	5.27
COc1ccc(-c2n[nH]c(=S)n2-c2ccc(C)cc2C)cc1	19.5
O=c1[nH]c(N/N=C/c2cc3c(cc2[N+](=O)[O-])OCO3)nc2ccccc12	-0.00362
C/C(=N/NC(=O)c1cc(-c2ccc(Cl)s2)[nH]n1)c1ccco1	6.58
CCOc1ccc(-c2nnn(CC(=O)NCCc3c[nH]c4ccccc34)n2)cc1	1.45
CCOc1cccc2cc(-c3nnc(NCc4ccc5c(c4)OCO5)s3)c(=O)oc12	-4.36
COc1cccc(NC(=S)NCCCN2CCOCC2)c1	16.7
O=[N+]([O-])c1ccc(N2CCCCC2)cc1	-16.5
O=C(CN(c1cccc([N+](=O)[O-])c1)S(=O)(=O)c1ccccc1)NCc1ccccc1	-68.5

SMILES	hERG current change (%, negative = inhibition) at 10uM [%]
CN(C)CCCN1C(=O)c2oc3ccccc3c(=O)c2C1c1cccs1 (stereo not drawn)	5.5
CCOC(=O)C(O)(c1ccc(N(CC)C(=O)OC)cc1)C(F)(F)F (stereo not drawn)	3.39
Cc1nnc(SCC(=O)c2c[nH]c3ccccc23)n1C1CC1	-17
CCCC(=O)Nc1ccc2c(c1)nc(CCN1CCCCC1)n2C	-4.96
COc1ccc(CC(=O)Oc2ccc(F)cc2)cc1	10.5
COC(=O)c1sccc1NC(=O)CSc1cccc(Cl)c1Cl	3.23
CC1=CSC2=NC(=O)/C(=C\c3cccn3-c3ccccc3)C(=N)N12	2.24
CC(=O)CCc1ccc(Oc2nc(-c3cccnc3)nc3ccccc23)cc1	5.75
CC1(C)CC(=O)C=C(NNC(=O)c2ccccc2O)C1	-2.31
O=C(NC1CCCCC1)C(c1cccnc1)N(C(=O)c1csnn1)C1CCCC1 (stereo not drawn)	9.2
C=CCOc1ccccc1CN1CCCC(CCC(=O)N(C)CCc2ccccn2)C1 (stereo not drawn)	-33.6
CC(C)(C)NCc1cc(Cl)ccc1OCc1ccccc1F.Cl	-43.3
O=C(NC(=S)NCc1ccccc1)c1ccccc1Br	12.2
Cc1ccccc1NC(=O)COC(=O)c1ccc(S(=O)(=O)N2CCCC2)cc1	4.28
CN(CC(=O)Nc1cccnc1Cl)S(=O)(=O)c1ccc(Cl)cc1	-9.46
COc1ccc2sc(N(CCN(C)C)C(=O)/C=C/c3cccs3)nc2c1.Cl	-33.2
N#C/C(=C/c1cccc(O)c1)C(=O)NCc1ccc(Cl)cc1	31
Cc1ccc(Cn2ccc(NC(=O)c3cc(C4CC4)on3)n2)cc1	-13.4
COCc1nnc(NC(=O)CCSc2ccccc2)s1	3.59

SMILES	hERG current change (%, negative = inhibition) at 10uM [%]
CCOC(=O)C(C(=O)OCC)N(C#N)c1nc(C)cc(C)n1	-4.66
O=C(Nc1ccccc1N1CCN(C(=O)c2ccc(Cl)cc2)CC1)c1ccc(Br)cc1	-41.5
COc1ccc2c(CC(=O)OCC(=O)Nc3cccc(C)c3)coc2c1	14.3
Cc1cccc(S(=O)(=O)NCCC(=O)OCC(=O)Nc2ccc(C#N)cc2)c1	-31.8
CC(=O)OC(C(=O)Nc1nccs1)c1ccccc1 (stereo not drawn)	2.26
CCN(CC(=O)Nc1c(F)cccc1F)C(=O)Cc1csc(-c2ccc(OC)c(OC)c2)n1	-2.82
CC(C)c1ccc(NC2CCCN(C(=O)c3cc(C(C)C)nc(N)n3)C2)cc1 (stereo not drawn)	1.21
NS(=O)(=O)c1ccc(N/N=C/c2cn(-c3ccccc3)nc2-c2cccs2)c([N+](=O)[O-])c1	11.4
COc1ccc(NC(=O)Nc2cc(C)ccc2F)cc1OC	11
Cc1cccc(C(=O)O/N=C/c2ccc(Br)cc2)c1	13.3
C/C(=N\NC(=O)CN(c1ccc(C)cc1)S(C)(=O)=O)c1cccs1	-8.31
CCOC(=O)c1ccc(NC(=S)NNC(=O)C2(C)CC2(Cl)Cl)cc1 (stereo not drawn)	28.4
CN(C)S(=O)(=O)N1CCC(Oc2ccc(C(=O)NC3CCCCC3)cc2)CC1	27.3
COc1ccccc1Nc1n[nH]c(=S)s1	8.52
Cc1ccc(NC(=O)CN(C)C(=O)COC(=O)c2nc3nccc(C)n3n2)cc1	7.33
CCOC(=O)Cn1nnc(-c2ccc([N+](=O)[O-])cc2)n1	-4.99
O=C(O)CCCCC1SCC2NC(=O)NC21 (stereo not drawn)	3.46
COc1cccc2cc(C(=O)C3=C(O)C(=O)N(CCN(C)C)C3c3ccc(F)cc3)oc12 (stereo not drawn)	1.39
COc1cccc(NC(=O)CN(C)C(=O)c2ccc(NC(=O)CC3SC(N4CCCCC4)=NC3=O)cc2)c1 (stereo not drawn)	5.5
